Assay results as given in the supplement of paper PMC3334620.
Whole data set: some 33,000 sequences, median “E-score (-0.5 to 0.5)” near -0.016, cut for the highest 2% near 0.31. The list shows a part of the results.

What follows are sequences tested against Cst6 (UniProt P40535) (assay: PBM E-score (8-mer binding enrichment) (E-score (-0.5 to 0.5)); higher = stronger / more preferred TF binding; most listed sequences are background and not binding sites). Details: protein concentration: 200 nM; construct: GST-DNA-binding domain.
In short: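 E-scores (a modified Wilcoxon-Mann-Whitney statistic) were assigned by the Universal PBM Analysis Suite to every ungapped eight-base word pooled with its reverse complement. The input came from universal all-10-mer Agilent arrays made double-stranded by primer extension and probed with GST-tagged yeast transcription factors at about 100-200 nM. Fluorescent anti-GST detected bound protein, and masliner normalised the scans.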
For GATACTTA, the “PBM E-score” value was 0.00497.
For AGTCTCAG, the “PBM E-score” value was -0.162.
For ATCTACTA, the “PBM E-score” value was 0.217.
For AAGCCATG, the “PBM E-score” value was -0.124.
With ATGTTAAC the “PBM E-score” value was 0.124.
In the case of ACTGTTTA, the “PBM E-score” value is reported as 0.0904.
In the case of ATCTCGCG, the “PBM E-score” value is reported as 0.0843.
For GAGCACAC, the “PBM E-score” value was -0.14.
In the case of CTTCCAAG, the “PBM E-score” value is reported as -0.245.
GTTGCATA was tested, and the “PBM E-score” value was 0.0892.
GATCCCCA was tested, and the “PBM E-score” value was -0.0499.
CGAATCTA was tested, and the “PBM E-score” value was 0.0417.
In the case of TGGCAGAA, the “PBM E-score” value is reported as 0.0392.
With CCCTGTTC the “PBM E-score” value was -0.255.
With CAACTGGG the “PBM E-score” value was -0.191.
AGGTGAGC was tested, and the “PBM E-score” value was -0.142.
With ACCCCCTG the “PBM E-score” value was -0.404.
With GCCTGACC the “PBM E-score” value was -0.213.
In the case of AGTGGTGC, the “PBM E-score” value is reported as -0.141.
ACTCACGG was tested, and the “PBM E-score” value was 0.0673.
For ACCGTGGA, the “PBM E-score” value was -0.184.
For CAGTAAGA, the “PBM E-score” value was 0.0612.
CCGACGAA was tested, and the “PBM E-score” value was 0.0288.
For GCCTAGGC, the “PBM E-score” value was -0.192.
For ACGTCTAG, the “PBM E-score” value was 0.0566.
With CCTGGCTC the “PBM E-score” value was -0.19.
For AGTGACCG, the “PBM E-score” value was -0.0724.
CGCGTGGA was tested, and the “PBM E-score” value was -0.139.
CGTGGCAG was tested, and the “PBM E-score” value was 0.00302.
For GTTAGGGA, the “PBM E-score” value was -0.223.
For ATAGTGGG, the “PBM E-score” value was -0.238.
With ACCACGCG the “PBM E-score” value was -0.00898.
With GTCAACCA the “PBM E-score” value was 0.0733.
For ATGACGAC, the “PBM E-score” value was 0.431.
For ACTAAACA, the “PBM E-score” value was 0.242.
CGTCATTA was tested, and the “PBM E-score” value was 0.477.
In the case of AACCAACA, the “PBM E-score” value is reported as 0.0484.
With CGTTTATC the “PBM E-score” value was 0.154.
With ATCATCCC the “PBM E-score” value was 0.154.
With TGACTCCA the “PBM E-score” value was -0.148.
In the case of TTAATAAA, the “PBM E-score” value is reported as 0.307.
GAATTGGA was tested, and the “PBM E-score” value was 0.0141.
CGTTGCCC was tested, and the “PBM E-score” value was -0.16.
CCCCTAAG was tested, and the “PBM E-score” value was -0.242.
With CACGTAGC the “PBM E-score” value was -0.0159.
With CATGAACC the “PBM E-score” value was 0.08.
For ATACAAAC, the “PBM E-score” value was 0.228.
In the case of GTACTTAA, the “PBM E-score” value is reported as -0.129.
CACAGGTC was tested, and the “PBM E-score” value was -0.217.
ATAGGCCG was tested, and the “PBM E-score” value was -0.324.
With CACGTTCG the “PBM E-score” value was -0.149.
For CTAGGAGA, the “PBM E-score” value was -0.148.
With AACCGCGT the “PBM E-score” value was 0.153.
CAACGTCA was tested, and the “PBM E-score” value was 0.471.
For TCCAAAAA, the “PBM E-score” value was 0.0923.
GAGACCGA was tested, and the “PBM E-score” value was -0.128.
For AGCCTGCC, the “PBM E-score” value was -0.108.
GGCGCCGA was tested, and the “PBM E-score” value was 0.234.
With AACGAACA the “PBM E-score” value was 0.194.
For AAGACTTC, the “PBM E-score” value was -0.117.
With CCGATACG the “PBM E-score” value was -0.246.
ACTCCTGG was tested, and the “PBM E-score” value was -0.311.
CCGTCAGG was tested, and the “PBM E-score” value was -0.107.
GTAATGGA was tested, and the “PBM E-score” value was 0.353.
In the case of GACCATGC, the “PBM E-score” value is reported as -0.00363.
With CCAGTAAA the “PBM E-score” value was -0.0936.
With AGTATTCA the “PBM E-score” value was 0.114.
With TCATCCCA the “PBM E-score” value was 0.0516.
With GACTCTAA the “PBM E-score” value was -0.0163.
For ACCGAGTG, the “PBM E-score” value was -0.15.
TCATAAGA was tested, and the “PBM E-score” value was 0.162.
In the case of TACATCCA, the “PBM E-score” value is reported as 0.153.
CGCGGTAC was tested, and the “PBM E-score” value was -0.00078.
In the case of AGGCTGCG, the “PBM E-score” value is reported as -0.225.
In the case of CCTGGGCC, the “PBM E-score” value is reported as -0.205.
In the case of TAATTTCA, the “PBM E-score” value is reported as 0.26.
For ACCAAAAG, the “PBM E-score” value was 0.161.
AATGCAGC was tested, and the “PBM E-score” value was -0.29.
In the case of GGGGCATA, the “PBM E-score” value is reported as -0.171.
In the case of CCGGATAG, the “PBM E-score” value is reported as -0.0256.
In the case of ACTTCCCA, the “PBM E-score” value is reported as -0.0226.
GCATCAAC was tested, and the “PBM E-score” value was 0.114.
With AAAATTTA the “PBM E-score” value was 0.149.
In the case of CCTGTAAG, the “PBM E-score” value is reported as -0.117.
For CGAAAAAG, the “PBM E-score” value was 0.228.
For ACGCCCGA, the “PBM E-score” value was -0.271.
For TATTGAGA, the “PBM E-score” value was 0.163.
For CCTTTAAG, the “PBM E-score” value was -0.119.
In the case of ACCGGCGG, the “PBM E-score” value is reported as -0.137.
In the case of ACAGAGAA, the “PBM E-score” value is reported as -0.0106.
With CGGCCGAC the “PBM E-score” value was -0.0661.
CTAGGTGC was tested, and the “PBM E-score” value was -0.287.
For ACTGGCGG, the “PBM E-score” value was -0.013.
With GTAAGTCA the “PBM E-score” value was 0.132.
For CGACCGGA, the “PBM E-score” value was -0.305.
For GTGGAAGA, the “PBM E-score” value was -0.11.
In the case of CACTCATA, the “PBM E-score” value is reported as 0.248.
For CGATGCCA, the “PBM E-score” value was -0.0183.
For AATTGTTG, the “PBM E-score” value was 0.0795.
For GATAAAGA, the “PBM E-score” value was 0.0684.
In the case of ACAGATTG, the “PBM E-score” value is reported as -0.0147.
In the case of AAGGGCTC, the “PBM E-score” value is reported as -0.307.
With GTGACTCA the “PBM E-score” value was 0.228.
For ACCACCTG, the “PBM E-score” value was -0.0871.
GCAGTCAC was tested, and the “PBM E-score” value was -0.0758.
For CAAACCGC, the “PBM E-score” value was -0.113.
With ACGCGCAA the “PBM E-score” value was 0.146.
With ACTTCCAA the “PBM E-score” value was -0.0664.
For ATGCACAT, the “PBM E-score” value was 0.0831.
With ATTTGTCA the “PBM E-score” value was 0.141.
In the case of ATGTAAGA, the “PBM E-score” value is reported as 0.339.
With ACACGACG the “PBM E-score” value was 0.0371.
AATCAAGT was tested, and the “PBM E-score” value was 0.0239.
ACTAGAAT was tested, and the “PBM E-score” value was 0.16.
For AACTATGT, the “PBM E-score” value was 0.0137.
ACCAGGGA was tested, and the “PBM E-score” value was -0.123.
For CCGGGGAG, the “PBM E-score” value was -0.168.
With AGCATTTG the “PBM E-score” value was -0.0653.
In the case of AAAGAAGG, the “PBM E-score” value is reported as -0.047.
For GCGAAAGC, the “PBM E-score” value was -0.138.
AGTACAGG was tested, and the “PBM E-score” value was 0.0732.
For ATAATGTC, the “PBM E-score” value was 0.109.
For CCGTAACA, the “PBM E-score” value was 0.166.
CGGCTGGC was tested, and the “PBM E-score” value was -0.28.
In the case of ACTTTCGG, the “PBM E-score” value is reported as -0.168.
With AACGATTC the “PBM E-score” value was 0.0091.
With CAAGTCGG the “PBM E-score” value was -0.175.
For GTAGGCAC, the “PBM E-score” value was -0.0825.
With CTACACAG the “PBM E-score” value was -0.0882.
ACCAATGC was tested, and the “PBM E-score” value was -0.108.
CCATCCGG was tested, and the “PBM E-score” value was -0.172.
With CGATATAA the “PBM E-score” value was 0.225.
For CCGGAAAA, the “PBM E-score” value was -0.049.
AGAATTGG was tested, and the “PBM E-score” value was -0.1.
AATTTGGA was tested, and the “PBM E-score” value was 0.0587.
CAAAGTAA was tested, and the “PBM E-score” value was 0.125.
In the case of ACCCTTCG, the “PBM E-score” value is reported as -0.0964.
ACTTCAAA was tested, and the “PBM E-score” value was -0.0108.
For CTACGGTA, the “PBM E-score” value was -0.0789.
AAGCTCCG was tested, and the “PBM E-score” value was -0.163.
In the case of AGCGAAGA, the “PBM E-score” value is reported as -0.101.
In the case of AAACACAG, the “PBM E-score” value is reported as -0.00842.
For TCGTCAAA, the “PBM E-score” value was 0.195.
With CCCGTTAC the “PBM E-score” value was 0.0254.
With GATTTTCC the “PBM E-score” value was -0.0413.
With AAACTGAC the “PBM E-score” value was 0.181.
With TCGGTCCA the “PBM E-score” value was -0.101.
In the case of GTACTGTA, the “PBM E-score” value is reported as -0.18.
For ATGGCGAC, the “PBM E-score” value was -0.0521.
ACTAATAG was tested, and the “PBM E-score” value was 0.211.
For ACGAACTA, the “PBM E-score” value was 0.0908.
CTCTTCAA was tested, and the “PBM E-score” value was -0.175.
For AAACTGTC, the “PBM E-score” value was -0.03.
In the case of ATCCCCTC, the “PBM E-score” value is reported as -0.17.
For CGTACGAA, the “PBM E-score” value was 0.174.
For CTTGTTAA, the “PBM E-score” value was 0.0436.
In the case of AACTGCCT, the “PBM E-score” value is reported as 0.129.
With CCTGCTTA the “PBM E-score” value was -0.0696.
With CTGCTGTA the “PBM E-score” value was -0.143.
GAGATGTA was tested, and the “PBM E-score” value was 0.0936.
GAAGAAGA was tested, and the “PBM E-score” value was -0.077.
For AAACTGCT, the “PBM E-score” value was -0.114.
For CGGGGTGC, the “PBM E-score” value was -0.224.
In the case of CCAATAGG, the “PBM E-score” value is reported as -0.162.
ATGGTCTA was tested, and the “PBM E-score” value was -0.0477.
In the case of CTATTAGA, the “PBM E-score” value is reported as -0.00752.
For GAAACGTC, the “PBM E-score” value was 0.286.
In the case of TCTGAACA, the “PBM E-score” value is reported as 0.0379.
AAATATCA was tested, and the “PBM E-score” value was 0.139.
For CCCGATAC, the “PBM E-score” value was -0.262.
For GTGCCAAA, the “PBM E-score” value was 0.0175.
In the case of AAGTTACC, the “PBM E-score” value is reported as 0.13.
